Assays:
U937 cells = test: Counter screen: cell viability without the TSQ cocktail (CelltiterGlo); set-up: species or system human; conditions: Homo sapiens, U-937, cell viability by CelltiterGlo, read-out: Off-target effect (IC50 cell-based assay)
Description: Counter screen: In parallel, all compounds were tested for their ability to affect cell viability. The same U937 cells were treated with compound in DMSO without the TSQ cocktail. This counter screen enabled evaluation of off-target effects. In this case, cell viability was measured by CelltiterGlo.

[1] = tested on: U937 human histiocytic leukemia cell line; test: Inhibition of TSQ induced necroptosis, 384 well plate format (CellTitre-Glo); conditions: Homo sapiens, U-937; U937 cells, TSQ cocktail (TNF, Smac mimetic, Q-VD-OPh), CelltiterGlo; read-out: Inhibition of TSQ-induced necroptosis (IC50 cell-based assay)
Description: […] ASSAY: Screening compounds for inhibition of TSQ induced necroptosis, 384 well plate format.
Cell Line ID: U937 human histiocytic leukemia cell line.
Cell Concentration (cells/well): Final cell density is 20000 cells per well.
Cell growth medium: HT-RPMI medium+7.4% Fetal Bovine Serum (FBS). Cells are cultured in Corning 150 cm^2 tissue culture flasks with vented caps at 37° C./5% CO2.
Incubation: Plates were incubated at 37° C./5% CO2 in a humidified incubator for 48 hours following addition of compounds and death stimuli (TSQ cocktail).
Compound concentration: 36 μM starting concentration, 1:3 dilution, 10 point
DMSO final concentration (% v/v): 0.3%.
Compounds in TSQ cocktail (T: TNF; S: Smac mimetic; Q: Q-VD-OPh) and their final concentrations:
hTNF-Fc (100 ng/ml)—produced by standard procedures as shown in Bossen et al., J Biol Chem, 2006, 281(20), 13964-13971.
Compound A (500 nM)—Smac mimetic, Tetralogic and SYNthesis med chem
Q-VD-OPh (10 μM)—MP Biomedicals
The cellular assay was carried out according to the following steps: • 1. Each well was prepared by sequential addition of: • a. DMSO (control; columns 1-2 and 23-24) or compound in DMSO—addition was performed using acoustic transfer of nl volumes of stock compound to give final test concentrations of 36, 12, 4, 1.3, 0.44, 0.148, 0.049, 0.016, 0.005 and 0.002 μM. All wells were backfilled with DMSO to a final total volume in the well of 100 nl. • b. Following compound/DMSO addition in step (a), 40 μL of cell suspension (5×10^5 cells/mL) was added to provide a final cell concentration of 20,000 cells per well, and • c. Following cell addition in step (b), 10 μL of 5×TSQ cocktail (except to positive controls; columns 1 and 23) was added to each well. • 2. After 48 hours, plate was removed from the 37° C. incubator and equilibrated to room temperature for 45 minutes. • 3. 15 μL of room temperature CellTitre-Glo2™ (Promega™) was added to each well. • 4. Shook plates for 2 minutes (˜600 rpm) and incubated at room temperature for 15 minutes to allow signal to stabilise. • 5. Read luminescence readout on a plate reader. Analysis:
Percent viability was calculated for each compound according to equation (2):
[formula] • wherein • RawData is the readout of any cell containing a compound of the invention • TA is the total activity provided by the luminescence readout from DMSO only wells (columns 2 and 24)=100% viability • NSA is the non-specific activity provided by DMSO+TSQ wells (columns 1 and 23)=0% viability
Curve fitting: 10-point titration curves are fitted with the 4-parameter logistic nonlinear regression model and the IC50 reported is the inflection point of the curve.
Analysis: Data was loaded into Dotmatics™ and visualised using the Tibco® Spotfire™ software. 10 points titration curves were fitted with the 4-parameter logistic nonlinear regression model and the IC50 reported reflect the inflection point of the curve for curve fitting.
Assay involving the TSQ cocktail (T: TNF; S: Smac mimetic; Q: Q-VD-OPh): TSQ treatment ensures that cells specifically undergo necroptotic cell death. […] The compounds' activity (solution in DMSO) tested in this TSQ-induced assay was evaluated by determining the number of viable cells in culture by measuring the amount of ATP present as measured by CelltiterGlo.

| SMILES | IC50 (U937 cells) [nM] | IC50 [1] [nM] |
| --- | --- | --- |
| CCc1cc(Nc2[nH]nc(-c3ccc(NS(=O)(=O)C(F)F)c(O[C@@H](C)c4ccc(F)cc4)c3)c2C(N)=O)no1 [Compound 274, (S)-3-(4-((difluoromethyl)sulfonamido)-3-(1-(4-fluorophenyl)ethoxy)phenyl)-5-((5-ethylisoxazol-3-yl)amino)-1H-pyrazole-4-carboxamide] | > 30000 | 10 to 1000 |
| CCS(=O)(=O)Nc1ccc(-c2n[nH]c(Nc3cnccn3)c2C(N)=O)cc1OCc1ccc(Cl)cc1 [Compound 42, 3-(3-((4-chlorobenzyl)oxy)-4-(ethylsulfonamido)phenyl)-5-(pyrazin-2-ylamino)-1H-pyrazole-4-carboxamide] | > 30000 |  |
| CCS(=O)(=O)Nc1ccc(-c2n[nH]c(Nc3ccc(C(F)(F)F)cn3)c2C(N)=O)cc1 [Compound 93, 3-(4-(ethylsulfonamido)phenyl)-5-((5-(trifluoromethyl)pyridin-2-yl)amino)-1H-pyrazole-4-carboxamide] | > 30000 | 1000 to 30000 |
| NC(=O)c1c(-c2ccc(NS(=O)(=O)CC(F)(F)F)cc2)n[nH]c1Nc1ccc(C(F)(F)F)cn1 [Compound 153, 3-(4-((2,2,2-trifluoroethyl)sulfonamido)phenyl)-5-((5-(trifluoromethyl)pyridine-2-yl)amino)-1H-pyrazole-4-carboxamide] | > 30000 | 10 to 1000 |
| CCS(=O)(=O)Nc1ccc(-c2n[nH]c(Nc3cnccn3)c2C(N)=O)cc1OCc1ccc(Cl)cn1 [Compound 242, 3-{3-[(5-chloropyridin-2-yl)methoxy]-4-ethanesulfonamidophenyl}-5-[(pyrazin-2-yl)amino]-1H-pyrazole-4-carboxamide] | > 30000 | 10 to 1000 |
| NC(=O)c1c(-c2ccc(NS(=O)(=O)CC(F)(F)F)c(OCc3ccc(F)cc3)c2)n[nH]c1Nc1ccc(C(F)(F)F)nc1 [Compound 176, 3-(3-((4-fluorobenzyl)oxy)-4-((2,2,2-trifluoroethyl)sulfonamido)phenyl)-5-((6-(trifluoromethyl)pyridine-3-yl)amino)-1H-pyrazole-4-carboxamide] | 1000 to 30000 | 10 to 1000 |
